From patent US9777070B2, “Anti-PTK7 antibody-drug conjugates” (Pfizer Inc., priority 2014, dated 2017)

T1: human PTK7 (Homo sapiens, UniProt Q13308)
T1 construct: human and cynomolgus monkey PTK7 protein ectodomains
T1 sequence (Q13308 31-704 limits assumed): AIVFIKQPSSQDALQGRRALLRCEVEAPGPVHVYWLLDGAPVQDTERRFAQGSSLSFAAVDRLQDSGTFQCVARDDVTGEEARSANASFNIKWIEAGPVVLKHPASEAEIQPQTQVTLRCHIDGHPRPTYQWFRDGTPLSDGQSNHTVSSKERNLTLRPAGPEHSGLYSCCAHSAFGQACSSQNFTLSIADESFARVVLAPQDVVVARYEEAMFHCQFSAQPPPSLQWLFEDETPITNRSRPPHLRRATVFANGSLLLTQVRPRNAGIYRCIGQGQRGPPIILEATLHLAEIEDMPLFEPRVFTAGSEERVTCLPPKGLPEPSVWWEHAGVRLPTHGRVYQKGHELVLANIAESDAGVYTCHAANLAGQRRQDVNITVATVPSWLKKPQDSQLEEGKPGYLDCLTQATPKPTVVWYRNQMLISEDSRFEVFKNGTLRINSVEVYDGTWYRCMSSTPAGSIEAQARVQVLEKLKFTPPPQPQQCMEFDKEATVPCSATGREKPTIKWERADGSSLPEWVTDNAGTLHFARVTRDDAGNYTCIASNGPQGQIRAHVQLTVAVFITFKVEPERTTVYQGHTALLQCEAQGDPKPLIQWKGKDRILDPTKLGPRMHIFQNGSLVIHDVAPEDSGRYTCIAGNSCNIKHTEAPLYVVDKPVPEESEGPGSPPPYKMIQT


Assays:
Cynomolgus Monkey PTK7 = assay: SPR of hu24 mAb and hu24-vc0101 ADC (Example 11); format: binding; settings: Cynomolgus PTK7 ectodomain
Description: (§1) Surface plasmon resonance (SPR) analysis was conducted to characterize the binding characteristics of the mAb and ADC to human and cynomolgus monkey PTK7 protein ectodomains. […] There was no significant difference in affinities between mAb and ADC for human or cynomolgus monkey PTK7 protein (Table 16).

human PTK7 = target: T1, human PTK7; assay: SPR of hu24 mAb and hu24-vc0101 ADC (Example 11); format: binding; settings: Human PTK7 ectodomain
Description: as §1

BR5 TNBC PDX = assay: In vivo efficacy, PDX tumor growth; design: species or system human tumor in mice
Source text: The effects of anti-PTK7 antibody-drug conjugates were further evaluated on the in vivo growth of human tumor patient-derived xenografts (PDX). Primary tumor resection samples were procured from clinical sites following Institutional Review Board for the Protection of Human Subjects approval and in accordance with HIPAA regulations. Tumor fragments were stored and shipped in Hypothermasol (Biolife Solutions) on ice and were embedded in Matrigel (BD) containing a proprietary mix of growth factors and implanted subcutaneously into the mammary fatpad of female NOD/SCID mice within 24 hours of resection. Mice were monitored for health status daily and for tumor growth initially by visual inspection twice per week. Once the tumors were palpable, measurements of tumor volume began to track tumor growth and estimate cell doubling time. Tumor volume was estimated using the equation V=(A*B^2)/2 where A is the long axis and B is the short axis. When tumors reached a volume of 500 mm^3 to 1,500 mm^3, they were harvested for study and for re-transplant as a patient-derived xenograft (PDX). Depending on the line, mechanical and/or chemical dissociation can be used to separate the individual cells for passage. Live cells were inoculated into naïve animals with 10,000 to 50,000 cells per animals
For efficacy studies, tumors were harvested from passaging studies and cells were dissociated into single cell suspension. Preparations were counted for live cells using Trypan blue exclusion and 10,000 to 50,000 cells were inoculated per mouse in Matrigel. […] Tumor growth was initially followed by palpability with measurements beginning once tumor volumes reached about 30 mm^3. Studies were randomized based on tumor size once a cohort of tumor-bearing mice reached 140 mm^3 to 180 mm^3. Animals were dosed by intraperitoneal injection twice a week for two weeks (q4dx4). […]
Tumor measurements were recorded twice a week using digital calipers and are shown as Mean±SEM. […]
Animals were dosed every four days for four cycles (Q4Dx4) by intraperitoneal injection except the BR5 study which was by intravenous injection on the same schedule. Tumor measurements were recorded one or two times per week using digital calipers and tumor volume was estimated using the equation V=(A×B^2)/2 where A is the long axis and B is the short axis. Animal body weights were measured and recorded at least once a week. […]
Tumor growth inhibition (TGI) was calculated using the equation % TGI=[1−(mean tumor volume of treated)/(mean tumor volume of vehicle)]. TGI was calculated at the latest possible time point, which was typically the last measurement before the control group was discontinued as described above. […]

H446 cells = assay: In vitro cytotoxicity, MTS, 4 days; format: cell-based, human
Description: (§2) The cytotoxicity of the antibody-drug conjugate hu24-vc0101 was evaluated on cell lines that express the target PTK7. The engineered HEK293T-PTK7 over-expressing cell line was plated into a clear flat-bottom tissue culture plate (BD Falcon) at 500 cells per 180 μL of cell culture media per well. Human cancer cell lines were also tested in this assay and plated at a density that was previously determined to be optimal for each cell line according to their rate of growth (H661 1500 cells/well and H446 9600 cells/well in 150 μl). The cells were incubated overnight at 37° C. in a 5% CO2 incubator. On the following day, the hu24-vc0101 ADC and the 8.84 Ab-vc0101 ADC (negative control) were added to the cells on a 10 point concentration curve in triplicate samples starting with 3 or 10 μg/mL with 1:3 dilutions in cell culture media. The plate was incubated in a 37° C., 5% CO2 incubator for 4 days. The MTS assay (Promega CellTiter 96 Aqueous Non-Radioactive Cell Proliferation Assay) was used according to the supplier's instructions. 30 μL (H446, H661) or 40 μL (HEK293T-PTK7) of the combined MTS reagent was added to each well, and the plate was incubated in a 37° C., 5% CO2 incubator for 2 hours. The OD was determined at 490 nm with a 96-well plate reader. The average reading from wells with media alone was subtracted from the readings of wells with cells to control for background OD.

H661 cells = assay: In vitro cytotoxicity, MTS, 4 days; format: cell-based, human
Description: as §2

[1] = system: HEK293T-PTK7 over-expressing cell line; assay: In vitro cytotoxicity, MTS, 4 days; format: cell-based, human; settings: HEK293-PTK7
Description: as §2

Molecule	Kd (Cynomolgus Monkey PTK7) [nM]	Kd (human PTK7) [nM]	Regression (TTP, Days) or % TGI (BR5 TNBC PDX; 3 mg/kg, Q4Dx4 iv)	effect on tumor growth (BR5 TNBC PDX; BR5, Q4Dx4, FIG. 16)	IC50 Values (H446 cells) [ng/mL]	IC50 Values (H661 cells) [ng/mL]	IC50 Values [1] [ng/mL]	Regression (TTP, Days) (BR5 TNBC PDX; 3 mg/kg, Q4Dx4 iv)	tumor regression without tumor growth through day (BR5 TNBC PDX; BR5, 3 mg/kg, Q4Dx4, intravenous, FIG. 16) [days]
hu24 (antibody) heavy: QVQLVQSGPEVKKPGASVKVSCKASGYTFTDYAVHWVRQAPGKRLEWIGVISTYNDYTYNNQDFKGRVTMTRDTSASTAYMELSRLRSEDTAVYYCARGNSYFYALDYWGQGTSVTVSS[letters of human IgG1 constant region omitted] light: EIVLTQSPATLSLSPGERATLSCRASESVDSYGKSFMHWYQQKPGQAPRLLIYRASNLESGIPARFSGSGSGTDFTLTISSLEPEDFAVYYCQQSNEDPWTFGGGTKLEIKRTVAAPSVFIFPPSDEQLKSGTASVVCLLNNFYPREAKVQWKVDNALQSGNSQESVTEQDSKDSTYSLSSTLTLSKADYEKHKVYACEVTHQGLSSPVTKSFNRGEC	1.2	0.7	None	did not inhibit tumor growth	–	–	–	–	–
hu24-vc0101: hu24 conjugated through cysteines to vc0101 linker-payload; average DAR approximately 4 (conjugate) heavy: QVQLVQSGPEVKKPGASVKVSCKASGYTFTDYAVHWVRQAPGKRLEWIGVISTYNDYTYNNQDFKGRVTMTRDTSASTAYMELSRLRSEDTAVYYCARGNSYFYALDYWGQGTSVTVSS[letters of human IgG1 constant region omitted] light: EIVLTQSPATLSLSPGERATLSCRASESVDSYGKSFMHWYQQKPGQAPRLLIYRASNLESGIPARFSGSGSGTDFTLTISSLEPEDFAVYYCQQSNEDPWTFGGGTKLEIKRTVAAPSVFIFPPSDEQLKSGTASVVCLLNNFYPREAKVQWKVDNALQSGNSQESVTEQDSKDSTYSLSSTLTLSKADYEKHKVYACEVTHQGLSSPVTKSFNRGEC	3.6	1.4	–	–	7.6 ± 5.0	27.5 ± 20.5	1.7	Regression (49) Days	≥ 49
